These are yes or no findings as the source states them, for the method shown. In cells and extracts the contact can be indirect. Sequences can lack the tags named with a protein.

The test has as its target T1, FLAG-tagged PI3KAP/XB130 deletion mutant, amino acid residues 186-843 (mouse) (UniProt Q5DTU0).
T1 sequence: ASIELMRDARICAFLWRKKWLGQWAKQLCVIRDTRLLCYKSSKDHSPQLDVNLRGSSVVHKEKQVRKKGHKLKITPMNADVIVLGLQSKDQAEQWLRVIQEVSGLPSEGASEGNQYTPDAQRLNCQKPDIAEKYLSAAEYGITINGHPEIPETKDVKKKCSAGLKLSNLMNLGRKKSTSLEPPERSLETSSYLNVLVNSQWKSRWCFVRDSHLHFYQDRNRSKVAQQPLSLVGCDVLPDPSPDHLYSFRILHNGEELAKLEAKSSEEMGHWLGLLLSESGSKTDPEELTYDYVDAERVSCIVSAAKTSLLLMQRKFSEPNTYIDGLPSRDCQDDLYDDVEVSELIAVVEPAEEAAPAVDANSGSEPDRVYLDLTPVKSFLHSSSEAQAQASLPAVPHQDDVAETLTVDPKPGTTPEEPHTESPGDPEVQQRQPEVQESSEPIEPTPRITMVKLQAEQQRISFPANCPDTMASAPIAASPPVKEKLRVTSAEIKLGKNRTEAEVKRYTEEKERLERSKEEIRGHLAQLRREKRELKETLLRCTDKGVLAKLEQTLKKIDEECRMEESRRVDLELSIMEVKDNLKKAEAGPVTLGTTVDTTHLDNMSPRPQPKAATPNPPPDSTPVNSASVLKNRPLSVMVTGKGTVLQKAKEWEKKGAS
The test can be described thus: co-IP; GFP-PI3KAP/XB130 co-transfected with full-length or deletion mutants of FLAG-tagged PI3KAP/XB130 into HEK293T cells; lysates immunoprecipitated with anti-FLAG M2 agarose, immunoblotting. For orientation: In western blotting, separated proteins are transferred to a membrane and probed.

B1: GFP-fused PI3KAP/XB130 (protein, UniProt Q5DTU0-2 1-843)
chain: MERYKAQGCCCLVVQRRILQVSASLEQLLTELDDFLKVLDQENLSSAAVLKKSGLSELLRLYTKSSSSDEEYIYMNKVSVNGEQNSASPDKVPEEQGPLTNGEPSQHSSAPQKSLPDLPPPKMIPERKQPTVPKIESPEGYYEEAEPFDRSINEDGEAVSSSYESYDEDENSKGKAAPYQWPSPEASIELMRDARICAFLWRKKWLGQWAKQLCVIRDTRLLCYKSSKDHSPQLDVNLRGSSVVHKEKQVRKKGHKLKITPMNADVIVLGLQSKDQAEQWLRVIQEVSGLPSEGASEGNQYTPDAQRLNCQKPDIAEKYLSAAEYGITINGHPEIPETKDVKKKCSAGLKLSNLMNLGRKKSTSLEPPERSLETSSYLNVLVNSQWKSRWCFVRDSHLHFYQDRNRSKVAQQPLSLVGCDVLPDPSPDHLYSFRILHNGEELAKLEAKSSEEMGHWLGLLLSESGSKTDPEELTYDYVDAERVSCIVSAAKTSLLLMQRKFSEPNTYIDGLPSRDCQDDLYDDVEVSELIAVVEPAEEAAPAVDANSGSEPDRVYLDLTPVKSFLHSSSEAQAQASLPAVPHQDDVAETLTVDPKPGTTPEEPHTESPGDPEVQQRQPEVQESSEPIEPTPRITMVKLQAEQQRISFPANCPDTMASAPIAASPPVKEKLRVTSAEIKLGKNRTEAEVKRYTEEKERLERSKEEIRGHLAQLRREKRELKETLLRCTDKGVLAKLEQTLKKIDEECRMEESRRVDLELSIMEVKDNLKKAEAGPVTLGTTVDTTHLDNMSPRPQPKAATPNPPPDSTPVNSASVLKNRPLSVMVTGKGTVLQKAKEWEKKGAS
With B1, the binding entry was “no binding”.
